# Inconclusive means that the source gave no clear call. Such entries were picked first, then a sample of the others. For some of these results: A potency beside an inconclusive call is a rough fit, not a confirmed value. Where a structure was tested more than once in an assay, its records may differ in their call. Activity calls are given as the source filed them. Unless noted, the call rests on the fitted dose curve; in most records, active means well fitted curve in the direction sought with a large enough effect in the repeat runs; inconclusive means weak or mixed curves; inactive means no such curve, though single readings can be large; an effect the other way counts as inactive or inconclusive.
# Experiments:
# [1] = qHTS assay to identify small molecule antagonists of the estrogen receptor alpha (ER-alpha) signaling pathway - cell viability counter screen (AID 743074; calls by dose curve;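 further: HEK293 cells carrying ER-alpha-UAS-bla reporter stimulated with 17beta-estradiol; on the % scale 0 is the no-effect control and ±100 the full control effect; nearly all actives have a fitted effect of over 45% in size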)
# [2] = qHTS assay to identify small molecule antagonists of the estrogen receptor alpha (ER-alpha) signaling pathway using the BG1 cell line - cell viability counter screen (AID 743081); conditions: BG1Luc4E2 viability, CellTiter-Fluor, 22 h; activity change, negative = cytotoxicity: at 70.3 µM (top of the series);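 further: compound given together with 17beta-estradiol as the ER stimulus; potency means the concentration at half of the fitted maximal effect; nearly all actives have a fitted effect of over 45% in size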
# [3] = target: Estrogen receptor (Homo sapiens) (UniProt P03372); test: qHTS assay to identify small molecule agonists of the estrogen receptor alpha (ER-alpha) signaling pathway using the BG1 cell line (AID 743079); conditions: BG1Luc4E2 cells, ERE-luciferase agonist, 22 h; further: nearly all actives have a fitted effect of over 20% in size; further: potency means the concentration at half of the fitted maximal effect; on activation: on the % scale 0 is the no-effect control and ±100 the full control effect
# [4] = target: Estrogen receptor (Homo sapiens) (UniProt P03372); test: qHTS assay to identify small molecule agonists of the estrogen receptor alpha (ER-alpha) signaling pathway (AID 743075; calls by dose curve;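 further: HEK293 GripTite cells with ER-alpha and UAS-driven beta-lactamase reporter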; further: potency means the concentration at half of the fitted maximal effect; on activation: on the % scale 0 is the no-effect control and ±100 the full control effect)
# [5] = qHTS assay to identify aromatase inhibitors - cell viability counter screen (AID 743084); conditions: MCF-7 aro ERE viability, CellTiter-Fluor, 24 h; activity change, negative = cytotoxicity: at 70.3 µM (top of the series);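 further: cells stimulated with testosterone during compound exposure; potency means the concentration at half of the fitted maximal effect; nearly all actives have a fitted effect of over 55% in size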
# [6] = qHTS assay to identify small molecule antagonists of the estrogen receptor alpha (ER-alpha) signaling pathway using the BG1 cell line (AID 743080; calls by dose curve;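 further: BG1 cells stimulated with 17beta-estradiol alongside compound; on the % scale 0 is the no-effect control and ±100 the full control effect; nearly all actives have a fitted effect of over 25% in size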); conditions: BG1Luc4E2 ERE-luciferase antagonist mode, luminescence; activity change, negative = inhibition: at 70.3 µM (top of the series) unless noted
# In short: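 BG1-Luc-4E2 cells (endogenous full-length ER-alpha, stable 4×ERE-luciferase) were starved 5 days in phenol-red-free medium with 10% charcoal-stripped FBS, plated 24 h, then given compound plus 17beta-estradiol for 21.5 h at 37 C; ONE-Glo luminescence read after 30 min.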
# [7] = activation: at 70.3 µM (top of the series) unless noted
# Tags describe the fitted curve by direction and shape or compound fluorescence and quenching.
# UniProt P03372, sequence (P03372 whole entry, looked up): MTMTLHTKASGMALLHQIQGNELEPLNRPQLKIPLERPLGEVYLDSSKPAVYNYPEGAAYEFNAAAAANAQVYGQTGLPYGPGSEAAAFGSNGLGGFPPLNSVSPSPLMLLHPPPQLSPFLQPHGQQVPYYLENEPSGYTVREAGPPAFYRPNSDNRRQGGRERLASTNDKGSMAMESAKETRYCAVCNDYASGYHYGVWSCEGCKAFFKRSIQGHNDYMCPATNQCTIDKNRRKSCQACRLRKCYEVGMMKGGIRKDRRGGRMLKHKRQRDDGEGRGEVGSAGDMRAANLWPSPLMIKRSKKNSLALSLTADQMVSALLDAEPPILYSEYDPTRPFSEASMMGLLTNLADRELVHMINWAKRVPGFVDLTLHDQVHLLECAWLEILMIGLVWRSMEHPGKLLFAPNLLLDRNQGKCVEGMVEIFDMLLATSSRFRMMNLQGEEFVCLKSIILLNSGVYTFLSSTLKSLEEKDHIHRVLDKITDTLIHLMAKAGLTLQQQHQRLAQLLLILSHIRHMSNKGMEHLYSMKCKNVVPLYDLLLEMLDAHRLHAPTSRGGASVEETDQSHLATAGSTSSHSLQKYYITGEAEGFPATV
smiles,measurement,setting,value
C=CCN1C[C@H](C(=O)N(CCCN(C)C)C(=O)NCC)C[C@@H]2c3cccc4[nH]cc(c34)C[C@H]21,Potency,[1],inactive
same,Potency,[2],"inconclusive: 5.31 µM [cytotoxic, full curve]"
CCC(O)C(C)(C)C (centres undefined),activation,[3]; [7],inconclusive: 18.9% [phenotype inactive] [at 95 µM]
CC(=O)Oc1ccc(C(=C2CCCCC2)c2ccc(OC(C)=O)cc2)cc1,Potency,[3]; [7],inactive
C=C(CC)C(=O)c1ccc(OCC(=O)O)c(Cl)c1Cl,Potency,[4],active: 68.7 µM [fluorescent]
same,Potency,[3]; [7],"inconclusive: 1.21 µM [activator, single point]"
same,Potency,[5],"inconclusive: 68.1 µM [cytotoxic, single point]"
O=C(O)O,Potency,[3]; [7],"inconclusive: 2.64 µM [activator, partial curve, poor fit]"
COC(=O)CCCCC(=O)OC,Potency,[4],inactive
Cc1cc(O)cc2c1O[C@](C)(CCC[C@H](C)CCC[C@H](C)CCCC(C)C)CC2,Potency,[3]; [7],inactive
CCCOc1ccc2nc(NC(=O)OC)[nH]c2c1,Potency,[4],"inconclusive: 0.952 µM [falling, full curve]"
CC=C(Cl)Cl,Potency,[4],inconclusive: 21.5 µM
CC(=O)CCC(=O)O,Potency,[4],"inconclusive: 2.29 µM [falling, full curve]"
same,Potency,[3]; [7],active: 15 µM
same,activation,[3]; [7],inconclusive: -7.7% [phenotype inactive] [at 95 µM]
same,activation,[3]; at 70.3 µM (top of the series),inactive: 2.93%
CCCCCCCCCCCCCCCC,Potency,[3]; [7],inconclusive: 54.5 µM [activator]
same,Potency,[6],inactive
CSc1ccc(C(=O)c2[nH]c(=O)[nH]c2C)cc1,activation,[3]; [7],inconclusive: 0.345% [phenotype inactive]
